The RNAGym collection of RNA variant scans (doi:10.7554/elife.90254)
The source gives no read counts; variants with many changes may rest on few reads.

B1: LINE1-mini (parent)
chain: GGCAGAGCUCAACACAGCGUGGCAAAGUGGCUGUGGCUAGACUGCC

Variants of: B1
Test: self-cleavage, relative activity (ratio to wild type); higher = more cleavage; in vitro, sequencing; the parent is a self-cleaving ribozyme
With C10A A11C U32A A41U the self-cleavage was 0. For C10A A11C U32G, the self-cleavage was 0.02. With C10A A11C U34G C37G the self-cleavage was 0. With C10A A11G A26G G30C C37U the self-cleavage was 0. Variant C10A A11G C31U G33U has a self-cleavage of 0.02. Work on C10A A11G G21U C46U yielded a self-cleavage of 0.05. In the case of C10A A11G G21U U32A, the self-cleavage is reported as 0. With C10A A11U A16U U34C G36U the self-cleavage was 0.01. Work on C10A A11U A25U yielded a self-cleavage of 0. C10A A11U A41U showed a self-cleavage of 0.05. With C10A A11U C13A G22U the self-cleavage was 0.01. With C10A A11U C18G the self-cleavage was 0.06. For C10A A11U C18U, the self-cleavage was 0.03. Work on C10A A11U C23G G36U yielded a self-cleavage of 0. C10A A11U C37A showed a self-cleavage of 0.02. C10A A11U G21C U43G C45A gave a self-cleavage of 0. Variant C10A A11U U20C G22U G33U has a self-cleavage of 0.02. In the case of C10A A11U U28C, the self-cleavage is reported as 0.04. C10A A11U U28G C46A showed a self-cleavage of 0. Variant C10A A12C A14C A41G has a self-cleavage of 0. Work on C10A A12C A24G G35A yielded a self-cleavage of 0. C10A A12C C15A U20G G27C showed a self-cleavage of 0.01. C10A A12C C18G showed a self-cleavage of 0. With C10A A12C C31G the self-cleavage was 0. In the case of C10A A12C G21A G27C U28G A39U, the self-cleavage is reported as 0. In the case of C10A A12C G21U, the self-cleavage is reported as 0.01. With C10A A12C G22C the self-cleavage was 0.03. C10A A12C G27A gave a self-cleavage of 0.03. C10A A12C G33C G44U gave a self-cleavage of 0. For C10A A12C U20A G44U, the self-cleavage was 0.01. Work on C10A A12G A24U yielded a self-cleavage of 0.11. Work on C10A A12G A41G C46U yielded a self-cleavage of 0.01. In the case of C10A A12G C13A C23U G35A A39G A41C, the self-cleavage is reported as 0. For C10A A12G C15U, the self-cleavage was 0.02. For C10A A12G C18A, the self-cleavage was 0.03. C10A A12G C37U C42U showed a self-cleavage of 0. C10A A12G C42G showed a self-cleavage of 0.03. In the case of C10A A12G C42U C46U, the self-cleavage is reported as 0. With C10A A12G G19A G35C the self-cleavage was 0. C10A A12G G21A gave a self-cleavage of 0.01. C10A A12G G21C A25U U34G C45A gave a self-cleavage of 0.01. Work on C10A A12G G21U G29C yielded a self-cleavage of 0.01. Work on C10A A12G G22U A26C G30U G36C C46A yielded a self-cleavage of 0.01. C10A A12G G29A U38A showed a self-cleavage of 0.02. In the case of C10A A12G G33A A39G C46A, the self-cleavage is reported as 0.02. Work on C10A A12G G33U U38G A39C yielded a self-cleavage of 0. Variant C10A A12U C15G G40U C46A has a self-cleavage of 0.03. C10A A12U C23U G27A G30U gave a self-cleavage of 0.02. In the case of C10A A12U C42U, the self-cleavage is reported as 0.03. For C10A A12U G19C A25U G40C, the self-cleavage was 0.01. For C10A A12U G22U G33U, the self-cleavage was 0.02. With C10A A12U G27A C31A U32C G33U the self-cleavage was 0. In the case of C10A A12U G27C, the self-cleavage is reported as 0.06. In the case of C10A A12U G33U C45A, the self-cleavage is reported as 0. In the case of C10A A12U U32G, the self-cleavage is reported as 0. C10A A14C C15A gave a self-cleavage of 0.04. In the case of C10A A14C C31A C46A, the self-cleavage is reported as 0.08. In the case of C10A A14C C37U C46U, the self-cleavage is reported as 0. C10A A14C G19C A26C U38G A39U showed a self-cleavage of 0.01. In the case of C10A A14C G21A A24C, the self-cleavage is reported as 0.01. Work on C10A A14C G21C yielded a self-cleavage of 0.01. Variant C10A A14C G21U G27A G33U A39G has a self-cleavage of 0.01. C10A A14C G29U G40C showed a self-cleavage of 0.01. C10A A14C G33A G40C gave a self-cleavage of 0.01. With C10A A14C G44C the self-cleavage was 0.02. Work on C10A A14C U32A yielded a self-cleavage of 0.03. With C10A A14G A24U A41C the self-cleavage was 0. In the case of C10A A14G C15U, the self-cleavage is reported as 0. C10A A14G C18A C31A showed a self-cleavage of 0.07. Work on C10A A14G C18U C23G C46A yielded a self-cleavage of 0.04. C10A A14G C31G G33U U38G U43C gave a self-cleavage of 0.01. With C10A A14G C37G the self-cleavage was 0. In the case of C10A A14G G19A U32G, the self-cleavage is reported as 0.02. Variant C10A A14G G19U has a self-cleavage of 0.01. C10A A14G G21C A41U G44A showed a self-cleavage of 0.01. C10A A14G G29U showed a self-cleavage of 0.01. C10A A14G G36A C37G showed a self-cleavage of 0.02. C10A A14G U38A U43A showed a self-cleavage of 0.03. Variant C10A A14G U38G has a self-cleavage of 0.11. In the case of C10A A14U A16U, the self-cleavage is reported as 0. With C10A A14U A24C the self-cleavage was 0.04. Variant C10A A14U C23U G35U G36C has a self-cleavage of 0.01. For C10A A14U G17C U20A, the self-cleavage was 0.02. For C10A A14U G19A C23U A41G C45U, the self-cleavage was 0. C10A A14U G19U gave a self-cleavage of 0.04. For C10A A14U G19U A26G A41G, the self-cleavage was 0. Variant C10A A14U G21U A24C A39C has a self-cleavage of 0.02. In the case of C10A A14U U20A A25U G27C U32C C42U C45A, the self-cleavage is reported as 0. C10A A14U U38G showed a self-cleavage of 0.05. C10A A16C A25U G36A G40A gave a self-cleavage of 0.01. For C10A A16C C23A G27U, the self-cleavage was 0.03. Variant C10A A16C C23G A25C has a self-cleavage of 0.01. In the case of C10A A16C C42G, the self-cleavage is reported as 0. With C10A A16C G22C the self-cleavage was 0.08. With C10A A16C G29U the self-cleavage was 0.03. Variant C10A A16G C23G C37A C45U has a self-cleavage of 0. C10A A16G C37U G44A showed a self-cleavage of 0.01. In the case of C10A A16G G19C G36U U43G C45G, the self-cleavage is reported as 0. For C10A A16G G27U, the self-cleavage was 0.06. In the case of C10A A16G G36U, the self-cleavage is reported as 0. Variant C10A A16G G40U has a self-cleavage of 0.01. C10A A16G U43C gave a self-cleavage of 0. Variant C10A A16U A41U U43C has a self-cleavage of 0.01. Variant C10A A16U G22A A41U has a self-cleavage of 0.02. For C10A A16U U20G, the self-cleavage was 0.06. With C10A A16U U38G the self-cleavage was 0.01. Work on C10A A24C A25C yielded a self-cleavage of 0.01. For C10A A24C A25U U28A G29U G36U, the self-cleavage was 0.02. C10A A24C U32G G36A G40C gave a self-cleavage of 0.07. In the case of C10A A24G C46U, the self-cleavage is reported as 0.05. In the case of C10A A24G G36A C42G, the self-cleavage is reported as 0.01. With C10A A24U A26U the self-cleavage was 0.05. In the case of C10A A24U A39G, the self-cleavage is reported as 0.03. C10A A24U A41C U43A gave a self-cleavage of 0. With C10A A24U G29U the self-cleavage was 0.05. In the case of C10A A25C C45G, the self-cleavage is reported as 0.05. Work on C10A A25C G35A C42A yielded a self-cleavage of 0.03. For C10A A25C U38A, the self-cleavage was 0.06. For C10A A25G U38A, the self-cleavage was 0.18. In the case of C10A A25U G33A, the self-cleavage is reported as 0.03. C10A A25U G40U showed a self-cleavage of 0.01. With C10A A25U U32G G35U the self-cleavage was 0.02. With C10A A25U U38C A39U the self-cleavage was 0.03. For C10A A26C C31A, the self-cleavage was 0.03. Work on C10A A26C G29A C31U U32G A41G yielded a self-cleavage of 0. C10A A26C G29U showed a self-cleavage of 0.04. With C10A A26C G33U G40C the self-cleavage was 0. Variant C10A A26C G36A G44U has a self-cleavage of 0. C10A A26G C31U showed a self-cleavage of 0. C10A A26G G27U G33C U38C G44A gave a self-cleavage of 0. For C10A A26G G30U, the self-cleavage was 0.05. With C10A A26U A39G the self-cleavage was 0.03. With C10A A26U C42U the self-cleavage was 0.03. C10A A26U G30A gave a self-cleavage of 0.05. C10A A26U G33U C42A showed a self-cleavage of 0.02. C10A A26U U32C C37U G40U showed a self-cleavage of 0.02. Variant C10A A26U U34A has a self-cleavage of 0.1. Work on C10A A39G C46G yielded a self-cleavage of 0.01. In the case of C10A A39G G40A, the self-cleavage is reported as 0.02. Variant C10A A39U U43C has a self-cleavage of 0.01. Variant C10A A41C C42U C45G has a self-cleavage of 0.01. Variant C10A A41C C46U has a self-cleavage of 0.01. For C10A A41C G44A, the self-cleavage was 0.05. Work on C10A A41G C45G yielded a self-cleavage of 0.02. Work on C10A A41U C42U yielded a self-cleavage of 0.01. With C10A C13A A16C the self-cleavage was 0.04. C10A C13A A24U G40U showed a self-cleavage of 0.02. For C10A C13A C15A G19A U38G C42U, the self-cleavage was 0.01. C10A C13A C18U gave a self-cleavage of 0.01. Variant C10A C13A C31G U38C has a self-cleavage of 0.05. Variant C10A C13A G17C G22C U38G C45U has a self-cleavage of 0. C10A C13A G19A G27U gave a self-cleavage of 0.02. C10A C13A G30C G35U gave a self-cleavage of 0.04. In the case of C10A C13A G30U U43A G44U, the self-cleavage is reported as 0.03. In the case of C10A C13A G40A C42U, the self-cleavage is reported as 0.01. Variant C10A C13A U20C has a self-cleavage of 0. Work on C10A C13G A14U yielded a self-cleavage of 0.03. In the case of C10A C13G A24G C31U C42G, the self-cleavage is reported as 0.02. C10A C13G A26U C31A gave a self-cleavage of 0.05. C10A C13G C31G U32C A41C gave a self-cleavage of 0.03. C10A C13G G17C G22U A41U gave a self-cleavage of 0.02. Work on C10A C13G G27C yielded a self-cleavage of 0.01. Work on C10A C13G G33A U43A yielded a self-cleavage of 0. C10A C13U A14C G17A G22U C23A showed a self-cleavage of 0.04. For C10A C13U A16G C18A, the self-cleavage was 0.06. Variant C10A C13U A16G G19U has a self-cleavage of 0.01. For C10A C13U C31A G33U, the self-cleavage was 0.
